# Reference: PubChem BioAssay AID485294 (National Center for Advancing Translational Sciences (NCATS), 2010)
# The whole screen tested about 370,000 compounds, of which about 150 (0.041%) were called active. The shares of active, inactive and inconclusive entries below differ from those in the screen. Calls come from the whole dose curve; as a rule, active = well fitted inhibition curve with a large enough effect; inconclusive = small, poorly fitted or top-dose-only effect; inactive = flat fitted curve, though single readings scatter. No potency is given beside an inconclusive call; the fits are too rough.
# Target: Beta-lactamase (Escherichia coli (strain K12)) (UniProt P00811)
# UniProt P00811, sequence (P00811 whole entry, looked up): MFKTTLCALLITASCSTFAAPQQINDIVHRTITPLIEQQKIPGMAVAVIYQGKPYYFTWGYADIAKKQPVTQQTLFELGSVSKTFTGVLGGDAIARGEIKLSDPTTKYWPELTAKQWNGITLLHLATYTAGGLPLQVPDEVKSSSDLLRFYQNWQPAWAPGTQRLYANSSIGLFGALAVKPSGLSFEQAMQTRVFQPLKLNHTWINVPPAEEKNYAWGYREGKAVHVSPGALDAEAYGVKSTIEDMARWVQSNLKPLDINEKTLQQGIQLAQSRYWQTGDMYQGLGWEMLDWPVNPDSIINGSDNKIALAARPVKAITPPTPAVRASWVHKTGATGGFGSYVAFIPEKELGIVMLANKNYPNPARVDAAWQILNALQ
# Experiment: qHTS Inhibitors of AmpC Beta-Lactamase (assay with detergent); note: nearly all actives have a fitted effect of over 25% in size;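 for activity change, negative = inhibition: 0% = no-compound wells and -100% = no-enzyme wells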
# Conditions: AmpC hydrolysis of nitrocefin, absorbance 480 nm, 0.01% Triton; activity change, negative = inhibition: at 114 µM (top of the series)
# Procedure, shortened: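 20 mM phosphate pH 7.0 + 0.01% (detergent screen) or 0.0001% Triton X-100; 5.3 nM AmpC reagent; cpd preinc 15 min RT; nitrocefin (800 uM stock) to start; A480 q20 s × 4 min; Activity was normalised to no-enzyme and no-compound control wells.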
# Potency is the fitted concentration of half-maximal effect; tags give direction and shape of the fitted curve.
SMILES,Potency,"activity change, negative = inhibition"
COc1ccc(C(=O)NCCS(=O)(=O)NCc2ccco2)cc1,"inconclusive [inhibitor, single point]",–
CCC(=O)Nc1ccc(Cl)c(NC(=O)c2ccccc2OC)c1,–,inactive: -12.6%
COc1ccc(-n2nnnc2SCC(=O)c2cc3ccccc3o2)cc1,"inconclusive [inhibitor, partial curve, poor fit]",–
O=C(OCc1nnc(-c2ccccc2)o1)C12CC3CC(CC(Br)(C3)C1)C2,"inconclusive [inhibitor, partial curve]",–
COc1ccc(CN2CCN(Cc3ccccc3F)CC2)cc1OC,"inconclusive [inhibitor, partial curve]",–
CCCc1nc(N2CCOCC2)c2sc(=S)n(-c3ccccc3)c2n1,"inconclusive [inhibitor, full curve]",–
Cc1nn(C2CCCCC2)c(N)c1-c1ccccc1,"inconclusive [inhibitor, full curve, poor fit]",–
Cc1cc(C)c2nc(-c3cccnc3)cc(C(=O)Nc3ccc(S(=O)(=O)Nc4onc(C)c4C)cc3)c2c1,"inconclusive [inhibitor, full curve, poor fit]",–
Cc1ccc(F)c(Oc2cc(NN3CCCCC3)c([N+](=O)[O-])cc2[N+](=O)[O-])c1,"inconclusive [inhibitor, full curve, poor fit]",–
COc1ccc(-n2c(C)cc(C(=O)Cn3nc(C(=O)O)c4ccccc4c3=O)c2C)cc1,–,inactive: 0.0921%
CCc1cccc(N(C(=O)c2csnn2)C(C(=O)NC2CCCCC2)c2cccnc2)c1 (configuration not stated),–,inactive: 2.2%
COc1ccc(C(=O)Nn2c(SCC(=O)c3ccccc3)nc3ccccc3c2=O)cc1,"inconclusive [inhibitor, single point]",–
O=C(Cn1cc([N+](=O)[O-])cn1)Nc1ccn(Cc2c(F)c(F)c(F)c(F)c2F)n1,"inconclusive [inhibitor, partial curve, poor fit]",–
Cc1oc(-c2ccccc2F)nc1CS(=O)(=O)CC(=O)NCCc1ccc(Cl)cc1,–,inactive: 7.66%
COC(=O)c1ccccc1S(=O)(=O)N1CCC(C(=O)NCc2ccco2)CC1,–,inactive: -2.51%
Cc1oc(-c2ccccc2Cl)nc1CS(=O)CC(=O)NCc1cccs1 (configuration not stated),"inconclusive [inhibitor, full curve, poor fit]",–
CCOc1ccc(C2C(C(=O)Nc3ccccc3)=C(C)Nc3nc(SCc4cc(C)ccc4C)nn32)cc1 (configuration not stated),–,inactive: 8.31%
O=C(NCC1CCCCC1)c1ccc([N+](=O)[O-])cc1,"inconclusive [inhibitor, partial curve]",–
Nn1c(COc2ccccc2F)nnc1SCC(=O)NC1CCS(=O)(=O)C1 (configuration not stated),"inconclusive [inhibitor, full curve, poor fit]",–
CC(C)Cn1c(=O)c2ccccc2n2c(CCC(=O)NC(C)c3ccccc3)nnc12 (configuration not stated),–,inactive: 28.4%
COc1ccccc1CO/N=C/NC(=O)c1c(OC)ccnc1Oc1ccc(F)cc1,"inconclusive [inhibitor, single point]",–
O=C(Cn1ccc([N+](=O)[O-])n1)NCc1cccnc1,"inconclusive [inhibitor, single point]",–
O=C(Cc1c(F)cccc1Cl)N/N=C/c1cccs1,"inconclusive [inhibitor, full curve, poor fit]",–

SMILES,Potency,"activity change, negative = inhibition"
COc1ccc(Br)cc1CN(C)C(=O)c1ccc2c(c1)NC(=O)C(C)S2 (configuration not stated),–,inactive: 1.24%
Cc1cc(C(=O)Cn2nnc(-c3ccc(Cl)cc3)n2)c(C)n1-c1ccccc1,"inconclusive [inhibitor, full curve, poor fit]",–
CN1C(=O)C(=O)/C(=C(/O)c2ccc(Br)cc2)C1c1ccc(F)cc1 (configuration not stated),"inconclusive [inhibitor, partial curve]",–
COc1ccc(NC(=O)CNC(=O)c2c(C)nn(C)c2Cl)cc1,"inconclusive [inhibitor, full curve, poor fit]",–
Cc1ccccc1NC(=O)c1nn(-c2ccc(F)c(F)c2)ccc1=O,"inconclusive [inhibitor, full curve, poor fit]",–
Cc1ccc(Cn2c(CN3CCC(C(=O)NCCc4ccccc4)CC3)cc3ccccc32)cc1,–,inactive: 6.14%
CCN1CCN(c2oc(-c3ccccc3)nc2S(=O)(=O)c2ccc(C)cc2)CC1,–,inactive: -14.8%
CC(C)Sc1ncc(Cl)c(C(=O)N(Cc2ccc(N(C)C)cc2)C2CCS(=O)(=O)C2)n1 (configuration not stated),–,inactive: 10.2%
COc1cccc(/C(C)=N/Nc2ncc(Cl)cc2Cl)c1,"inconclusive [inhibitor, single point]",–
C/C(=N/NC(=O)CSc1nc2ccccc2s1)c1ccncc1,–,inactive: -6.6%
COc1cc(/C=N/NC(=O)CCC(=O)Nc2ccc(C)cc2)ccc1O,–,inactive: 4.64%
COc1ccc(C(=O)Nc2ccccc2C(=O)N/N=C/c2ccncc2)cc1OC,–,inactive: -3.14%
COc1ccc(CNC(=O)C2CCN(S(=O)(=O)N3CCC4(CC3)OCCO4)CC2)c(OC)c1,"inconclusive [inhibitor, partial curve, poor fit]",–
Cc1csc(N2CCN(c3cc4c(cc3Cl)nc(-c3ccncc3)n4CCCN3CCCC3)CC2)n1,–,inactive: -8.3%
NC(N)=NS(=O)(=O)c1ccc(NC(=S)NC(=O)Cc2ccc(Cl)cc2)cc1,"inconclusive [inhibitor, full curve, poor fit]",–
Nc1cc(Cl)nnc1Cl,"inconclusive [inhibitor, full curve, poor fit]",–
COC(=O)c1c(NC(=O)Cn2cc([N+](=O)[O-])cn2)sc2c1CCC2,–,inactive: -3.42%
CC1CCC(N2CCN(S(=O)(=O)Cc3ccccc3)CC2)CC1 (configuration not stated),"inconclusive [inhibitor, full curve]",–
Cc1ccc(-n2c(=O)c3c(cnn3C)n(Cc3ccccc3F)c2=O)cc1,–,inactive: -5.28%
c1ccc(COCCC2CO2)cc1 (configuration not stated),"inconclusive [inhibitor, full curve, poor fit]",–
COc1ccc(CCNC(=O)c2nnc(Cc3c(F)cccc3Cl)o2)cc1OC,"inconclusive [inhibitor, partial curve, poor fit]",–
COC(CNC(=O)Cn1ncc2ccsc2c1=O)OC,"inconclusive [inhibitor, single point]",–
COc1cccc(C2CC(c3ccccc3Cl)n3ncnc3N2)c1 (configuration not stated),"inconclusive [inhibitor, full curve, poor fit]",–

SMILES,Potency,"activity change, negative = inhibition"
CCOC(=O)N1CCN(C(=O)c2ccc3c(c2)ncn3C2CCCC2)CC1,"inconclusive [inhibitor, partial curve]",–
Cc1ccc(NC(=O)N2CCC(C(N)=O)CC2)cc1,"inconclusive [inhibitor, full curve]",–
Cn1c(=N)n(CC(O)c2cccc3ccccc23)c2ccccc21 (configuration not stated),–,inactive: -1.38%
CC(C)CCN(C(=O)CCSc1ccc(F)cc1)c1c(N)n(Cc2ccccc2)c(=O)[nH]c1=O,–,inactive: 0%
CCOc1ccc(C(=O)Nc2nc3ccccc3[nH]2)cc1OCC,"inconclusive [inhibitor, partial curve]",–
CCCCn1c(N)c(N(CC(C)C)C(=O)Cc2ccc3c(c2)OCCO3)c(=O)[nH]c1=O,"inconclusive [inhibitor, full curve, poor fit]",–
CS(=O)(=O)NC1c2cccc3cccc(c23)C1Sc1nncn1/N=C/c1ccco1 (configuration not stated),"inconclusive [inhibitor, full curve]",–
CCCCN(C(=O)Cc1ccc(S(=O)(=O)N2CCOCC2)s1)c1c(N)n(CCCC)c(=O)[nH]c1=O,"inconclusive [inhibitor, single point]",–
CC(Oc1ccccc1F)C(=O)NNC(=O)CCS(=O)(=O)c1ccccc1Cl (configuration not stated),"inconclusive [inhibitor, full curve]",–
O=C(C1CCN(S(=O)(=O)c2ccc(Br)s2)CC1)N1CCN(c2ccccc2)CC1,"inconclusive [inhibitor, full curve, poor fit]",–
COc1cc(C)nc(N2CCC(C(N)=O)CC2)n1,–,inactive: -12.5%
CCOCCCn1c(SCC(=O)Nc2cc(OC)ccc2OC)nc2ccccc2c1=O,"inconclusive [inhibitor, full curve, poor fit]",–
COc1cc(NC(=O)c2cc(C(C)C)on2)c(OC)cc1Cl,–,inactive: -7.56%
CCOc1ccc(OCc2ccc(C(=O)NCc3ccncc3)o2)cc1,"inconclusive [inhibitor, single point]",–
CCN(CC)S(=O)(=O)c1ccc(C(=O)N2CC(=O)Nc3ccc(F)cc3C2c2ccccc2)cc1 (configuration not stated),–,inactive: 8.36%
COC(=O)c1cccc(NC(=O)/C=C/c2cccc([N+](=O)[O-])c2)c1,–,inactive: -3.73%
COc1ccccc1CN(C(=O)CNC(=O)c1ccco1)C(C(=O)NCC1CCCO1)c1ccc(OC)c(OC)c1 (configuration not stated),"inconclusive [inhibitor, full curve, poor fit]",–
O=C(Nc1cccc(C(=O)NC2CCCC2)c1)c1ccccc1,"inconclusive [inhibitor, single point]",–
O=C(O)C1Nc2ccc(Br)cc2C2C=CCC12 (configuration not stated),"inconclusive [inhibitor, partial curve, poor fit]",–
O=C(c1cc(-c2cccs2)on1)N1CCCc2ccccc21,"inconclusive [inhibitor, full curve, poor fit]",–
Cc1cccc(C(=O)NC(=S)NNC(=O)c2ccccc2Cl)c1,"inconclusive [inhibitor, partial curve]",–
